Experiment: soluble fraction after stress (log2 fold change); higher = more stays soluble; pooled small domains, quantitative proteomics
Settings: stress: pH 4
Summary of the method: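 Custom libraries of small protein domains were pooled and measured with high-throughput quantitative proteomics after pH 4 stress. The read-out is the fold change in the amount of each domain that stays soluble after the acid stress, taken as a measure of aggregation propensity. Fold changes are on a log2 scale, and higher values mean more of the domain stayed soluble.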

| Sequence | soluble fraction (log2) |
| --- | --- |
| HMRRLQTVVFQKGLATTIRQARQLINHGHIFVDGHKVTVPGYLVLREEEGSVAYNPASPFTDENHPM | 0.0735 |
| HMTEEDLIEAFKIFDKDGNGVISAQELRHVMTTLGERLTEEEADEMIREADIDGDGYINYHEFVRIMM | -1.66 |

— the domain aggregation screens of Martell et al. (2025)
